The values that follow come from patent publication US20100166772A1, “ANTIGEN-BINDING PROTEINS TARGETING S. AUREUS ORF0657n” (priority 2007, published 2010).

One data set concerns S. aureus strain Becker. As to the kind of experiment: Blood CFU (bacteremia) in cannulated rats, Experiment 5. Type of data set: in vivo. As to conditions: rat, 4 mg mAb ip 1 hour prior to challenge. The procedure: The cannulated rats studied in Experiment 5 (Table 12) were injected ip with 4 mg monoclonal antibody (CS-D7 or isotype control), or PBS alone, 1 hour prior to challenge. They were then challenged iv with 1−2×10^9 CFU S. aureus strain Becker. Blood was drawn from all rats at the designated time points. At the final time point (32 hours), blood was drawn, and the animals were sacrificed and the catheter removed. Blood was evaluated for bacteria by spreading 50 uL on TSA plates and culturing overnight. The catheters were evaluated for S. aureus by plating on mannitol salt plates overnight.

The subject of a further data set is S. aureus RN4220. As to the kind of experiment: Ex vivo model: passive protection of Balb/c mice with pre-opsonized bacteria. Type of data set: in vivo. Conditions: bacteria pre-opsonized with 800 μg IgG, ip, 3 days post challenge. The procedure: Monoclonal antibodies were evaluated using a method of passive protection. Bacteria were pre-opsonized ex vivo with mAb prior to lethal injection via the intra-peritoneal (ip) route (ex vivo method). […] Bacteria were then pelleted and any unbound mAb removed. […] After challenge, each inoculum was quantitated by plating on TSA to insure that equivalent CFU was given to all groups of mice and that the mAbs had not aggregated the bacteria. Survival was monitored for 3 days post challenge. Since the target antigen must be present on the surface of the bacteria for this procedure to be effective, care was taken to ensure that ORF0657n was expressed on the bacteria prior to opsonization. The challenge strain was S. aureus RN4220, which was passaged 2× in the low iron medium RPMI. The dose of opsonized bacteria injected into each mouse was 1−2×10^9 CFU/mouse.

In another data set the test system is S. aureus. As to the kind of experiment: Opsonophagocytosis activity (OPA) assay with HL60_DMF cells. Type of data set: cell-based. The source says: An opsonophagocytosis activity (OPA) assay was developed to evaluate an antibody's ability to opsonophagocytose. The assay measures the ability of antibodies to bind and fix complement (C′) to the bacterial surface, which results in an increase in the level of phagocytosis of these bacteria by granulocytic effecter cells.
ORF0657n is an iron regulated protein on the surface of S. aureus that appears to be involved in heme/Fe acquisition. […] For this assay the strain is iron starved to increase the expression of ORF0657n. This strain also lacks the ability to produce Protein A. Protein A can bind to the Fc portion of any IgG and the presence of this non-specifically bound antibody could interfere in the OPA reaction.
HL60 cells were exposed to dimethylformamide (DMF) for five to six days to induce the cells to differentiate towards a more granulocytic phenotype. Next, 2% C′-sufficient gnotobiotic pig serum was added to the antibody bound cells. Finally, the antibody and C′ exposed cells were then labeled with the fluorescent chemical 5′, 6′-FAM-SE.
After incubation of opsonized, fluorescently-labeled bacteria and unlabeled HL60_DMF cells, the level of phagocytosis was determined by measuring the percentage of HL60_DMF cells containing labeled bacteria by flow cytometry. […]

The next data set deals with S. aureus Becker. As to the kind of experiment: Combination treatment vancomycin and mAb in cannulated rats, catheter bacteria load. Type of data set: in vivo. Conditions: both sets of experiments (Tables 15 and 16). The procedure:
Cannulated rats were given vancomycin (20 mpk) sub. cu. at 1 hour (1 H) prior to iv challenge with 2−4×10^9 CFU of S. aureus Becker. At 1 H post challenge, the rats were injected with 6 mg/rat of either the mAb CS-D6, an isotype control mAb 20C2HA, or PBS. At 24 hours post challenge, the animals were sacrificed, the jugular vein catheters harvested and evaluated for the bacteria load on the catheter. Evaluation of catheters was performed by placement in selective broth medium, and outgrowth on the Piccolo incubation system. Outgrowth was compared to standard curves of S. aureus growth under the same conditions to calculate the number of CFU on the experimental catheters. In the first set of experiments (Table 15), small numbers of animals were used to test the system. In the second set of experiments (Table 16), larger numbers of rats were used. […] This model was designed to simulate a clinical situation in which a patient is undergoing surgery or other invasive procedure, and getting an empiric or prophylactic antibiotic. In the model, the mAb was injected after bacteria exposure, simulating adjunctive mAb treatment for infection during surgery.

B1: mAb CS-D7: immunoglobulin having two light chains of SEQ ID NO: 1 and two heavy chains of SEQ ID NO: 2; IgG1, kappa (antibody)
heavy: QVQLQESGPGLVKPSETLSLTCTVSGGSIRSSSYYWGWFRQTPGKGLEWLGNVFFSGSAYYNPSLKNRVTISIDTSENQSSLKLTSVTAADTAVYYCARPQAYSHDSSGHSPFDLWGRGTLVTVSSASTKGPSVFPLAPSSKSTSGGTAALGCLVKDYFPEPVTVSWNSGALTSGVHTFPAVLQSSGLYSLSSVVTVPSSSLGTQTYICNVNHKPSNTKVDKRV[human IgG1 Fc left out]
light: EIVMTQSPATLSVSPGERATLSCRASQYVSDNLAWYQQKPGQAPRLLIYGASTRATGVPARFSGSGSGTEFTLTISSLQSEDFAVYYCQQYNNWRPVTFGQGTRLEIKRTVAAPSVFIFPPSDEQLKSGTASVVCLLNNFYPREAKVQWKVDNALQSGNSQESVTEQDSKDSTYSLSSTLTLSKADYEKHKVYACEVTHQGLSSPVTKSFNRGEC
modifications: mAb CS-D7 heavy chain; mAb CS-D7 light chain
notes: IgG1, kappa
Regarding B1, the “blood CFU (FIG. 6)” value in the data set on S. aureus strain Becker is “a reduction of blood CFU was demonstrated”. For the same molecule, in the data set on S. aureus RN4220, the “% survival” value was 25% and the “Aggregate (survivors/mice)” value is reported as 5/20. Further, the “opsonic activity compared to isotype control” value in the data set with S. aureus (FIGS. 4 and 5) is listed as “higher opsonic activity compared to their IgG1 isotype control”. For the same molecule, the “quantity of mAb needed to produce a maximal level of phagocytosis” value in the data set on S. aureus (HL60_DMF cells, 2% pig serum complement) is 0.06 µg. In addition, the “enhancement of vancomycin activity versus isotype control mAb” value with S. aureus Becker is “significant enhancement of the activity of vancomycin”.
